# About 2,200 (0.71%) of roughly 310,000 compounds showed an effect of 50% or more. The effect is printed as a negative number. The list shows a part of the results.
# Target: human ether-à-go-go-related gene (hERG) potassium channel (human, UniProt Q12809)
# Experiment: primary screen, population patch clamp on CHO cells stably expressing hERG
# human ether-à-go-go-related gene (hERG) potassium channel, sequence (Q12809 whole entry, looked up): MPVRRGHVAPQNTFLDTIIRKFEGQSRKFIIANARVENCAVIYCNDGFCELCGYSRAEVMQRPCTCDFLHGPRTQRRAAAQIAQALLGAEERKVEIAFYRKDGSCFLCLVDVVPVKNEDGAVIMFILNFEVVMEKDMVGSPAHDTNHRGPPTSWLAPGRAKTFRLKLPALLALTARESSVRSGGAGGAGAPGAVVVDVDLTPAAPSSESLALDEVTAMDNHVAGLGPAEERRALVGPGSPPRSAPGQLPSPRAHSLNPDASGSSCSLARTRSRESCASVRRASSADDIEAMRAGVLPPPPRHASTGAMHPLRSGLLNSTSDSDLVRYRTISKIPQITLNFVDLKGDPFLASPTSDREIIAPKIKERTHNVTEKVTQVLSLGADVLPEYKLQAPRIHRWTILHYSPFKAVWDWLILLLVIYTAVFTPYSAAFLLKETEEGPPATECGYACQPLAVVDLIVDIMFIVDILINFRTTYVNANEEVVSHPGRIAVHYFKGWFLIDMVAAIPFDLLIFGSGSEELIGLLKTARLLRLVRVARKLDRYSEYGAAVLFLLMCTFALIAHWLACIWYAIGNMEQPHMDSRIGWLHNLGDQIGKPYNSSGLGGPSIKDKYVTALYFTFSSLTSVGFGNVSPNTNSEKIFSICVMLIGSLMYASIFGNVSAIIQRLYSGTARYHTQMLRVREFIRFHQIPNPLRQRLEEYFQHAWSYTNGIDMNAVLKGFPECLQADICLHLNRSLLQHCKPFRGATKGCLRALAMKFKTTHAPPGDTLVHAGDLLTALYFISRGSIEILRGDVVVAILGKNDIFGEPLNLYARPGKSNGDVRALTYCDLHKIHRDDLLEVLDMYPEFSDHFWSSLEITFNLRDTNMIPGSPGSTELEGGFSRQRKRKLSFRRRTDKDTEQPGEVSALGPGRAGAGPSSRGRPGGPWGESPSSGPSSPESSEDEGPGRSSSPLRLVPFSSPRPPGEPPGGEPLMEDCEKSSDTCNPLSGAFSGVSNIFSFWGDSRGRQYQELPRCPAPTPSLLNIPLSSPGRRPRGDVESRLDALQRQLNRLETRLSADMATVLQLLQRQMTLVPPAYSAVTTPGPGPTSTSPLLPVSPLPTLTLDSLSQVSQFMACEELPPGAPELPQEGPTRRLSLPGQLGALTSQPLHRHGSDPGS
row,SMILES,"hERG current change (%, negative = inhibition) at 1uM [%]"
1,C=CCCN(Cc1ccccc1)S(=O)(=O)c1ccccc1Br,9.46
2,CS(=O)(=O)N1CCN(C(=O)c2cc(-c3cccnc3)nc3ccc(Cl)cc23)CC1,16.8
3,Cc1ccc(S(=O)(=O)c2c(C)c(C)c(C)[nH]c2=O)cc1,14.7
4,COc1ccc(/C=N/NC(=O)c2cc(-c3ccccc3OC(C)C)nc3ccccc23)cc1CN1CCOCC1,4.46
5,COc1ccccc1NC(=O)N1CCN(C)CC1,7.27
6,CCOc1ccc(S(=O)(=O)N2CCC(C(=O)NCCN3CCOCC3)CC2)cc1C,3.21
7,Cc1ccc(CCN2CC(C(=O)NCCCN3CCC(C)CC3)CC2=O)cc1 (centres unmarked),-16
8,CC(NC(=O)Nc1cccc(F)c1)c1ccc2c(c1)OCO2 (centres unmarked),14.4
9,N#C/C(=C\c1ccc(-c2ccc(C(=O)O)cc2)o1)C(=O)NCC1CCCO1 (centres unmarked),2.36
10,CCc1nnc(NC(=O)CSc2nnc(Cc3ccccc3)n2Cc2ccccc2)s1,10.5
11,CC(=O)c1ccc(NC(=O)c2ccc(-n3cncn3)c([N+](=O)[O-])c2)cc1,3.62
12,O=C(CN(Cc1ccccc1)S(=O)(=O)c1ccc(Br)cc1)NCC1CCCO1 (centres unmarked),-80.5
13,CSc1ccc(NC(=O)CSc2nc3[nH]c(=O)cc(O)c3s2)cc1,9.33
14,CCCN(C(=O)c1ccco1)c1nnc(-c2ccccc2C)s1,-1.18
15,Cc1cc(Cl)ccc1OCC(=O)Nc1nc(-c2cccnc2)cs1,13.3
16,COc1ccc(C)cc1S(=O)(=O)Nc1cccc(-c2ccc(N3CCCCCC3)nn2)c1,12.5
17,CCOc1ccc(/C=C(\C#N)C(=O)NC2CC2)c(OCC)c1,3.5
18,CC1CCN(CCNC(=O)C2CCCN(c3ncnc4c3nc3n4CCCCC3)C2)CC1 (centres unmarked),15.5
19,COC(=O)C1=C(N)Oc2cc(C)n(CCc3ccccc3)c(=O)c2C1c1cccnc1 (centres unmarked),-1.7
20,COC(=O)c1ccc(Cn2c(C)cc(C)[n+]2C)o1.[I-],13.1
21,CCC(C)Nc1nc2c(c(=O)n(C)c(=O)n2C)n1Cc1ccc(Cl)cc1 (centres unmarked),13.5
22,CCCCn1nnc(NC(=O)COc2ccc(Cl)c(C)c2)n1,19.6

row,SMILES,"hERG current change (%, negative = inhibition) at 1uM [%]"
1,O=C(NCCN1CCOCC1)C(=O)NCC1OCCN1S(=O)(=O)c1ccc(Br)cc1 (centres unmarked),8.35
2,O=C(CCCSc1nnc(-c2cccs2)n1CC1CCCO1)c1ccccc1 (centres unmarked),-10.9
3,O=C(NC1CCCC1)C(c1ccsc1)N(C(=O)Cc1cccs1)c1ccc(F)cc1 (centres unmarked),14.9
4,COc1ccccc1N(CC(O)Cn1ccnc1C)S(=O)(=O)c1ccc(C)cc1.Cl (centres unmarked),-10.5
5,O=C(OC(C(=O)NCC1CCCO1)c1ccccn1)c1cccs1 (centres unmarked),12.4
6,CCN(CC)CCCN1C(=O)c2oc3ccccc3c(=O)c2C1c1cccnc1 (centres unmarked),5.73
7,CCCc1nnc(SCC(=O)N2CCOCC2)n1C,11.4
8,COc1ccccc1N(CC(=O)NC1CCCCC1)C(=O)CCC(=O)Nc1nccs1,6
9,COCCCNC(=S)NNC(=S)Nc1cccc(Cl)c1,18.9
10,COc1cccc(CN2CCNC(=O)C2CC(=O)NCCOc2cccnc2)c1 (centres unmarked),8.71
11,O=C(COC(=O)CNC(=O)c1ccc(Cl)cc1Cl)NC1CCCCC1,7.92
12,O=C(c1ccc(F)cc1)N1CCN=C1c1ccccc1,9.99
13,CCN(CC(=O)N1CCCCCC1)S(=O)(=O)c1ccc(Cl)cc1,1.78
14,CCc1cc2c(=O)n(-c3ccc(Br)cc3)cnc2s1,5.56
15,Fc1cccc(-c2cc3nc4c(c(NCc5ccco5)n3n2)CCCC4)c1,-5.18
16,O=C(CN1CCCCC1)Nc1ccc(S(=O)(=O)N2CCOCC2)cc1,3.46
17,COc1ccc(C/C(C)=N/NC(=O)c2ccc(Cl)cc2)cc1,7.15
18,COc1ccccc1CNS(=O)(=O)c1c(C)nc2scc(C)n2c1=O,-7.96
19,Cc1nc2ccc(NC(=O)c3cccnc3)cc2s1.O=C(O)C(=O)O,5.1
20,COc1cccc(NC(=O)CN(C)C(=O)CC2Sc3ccccc3NC2=O)c1 (centres unmarked),1.85
21,COc1ccc(/C=C2/C(=O)N(CC3CCCO3)C(=S)N2C)c(OC)c1 (centres unmarked),0.507
22,COc1ccc(CCn2c(NN=C3CCCCC3)nc3c2c(=O)[nH]c(=O)n3C)cc1,9.97
